From paper PMC4336329 (PLoS ONE, 2015)
Hit rate of the full screen: of about 310,000 compounds, about 2,200 (0.71%) showed an effect of 50% or more. Effects have a minus sign here. This is one part of the list.

Target: human ether-à-go-go-related gene (hERG) potassium channel (human, UniProt Q12809)
Assay: primary screen, population patch clamp on CHO cells stably expressing hERG

human ether-à-go-go-related gene (hERG) potassium channel, sequence (Q12809 whole entry, looked up): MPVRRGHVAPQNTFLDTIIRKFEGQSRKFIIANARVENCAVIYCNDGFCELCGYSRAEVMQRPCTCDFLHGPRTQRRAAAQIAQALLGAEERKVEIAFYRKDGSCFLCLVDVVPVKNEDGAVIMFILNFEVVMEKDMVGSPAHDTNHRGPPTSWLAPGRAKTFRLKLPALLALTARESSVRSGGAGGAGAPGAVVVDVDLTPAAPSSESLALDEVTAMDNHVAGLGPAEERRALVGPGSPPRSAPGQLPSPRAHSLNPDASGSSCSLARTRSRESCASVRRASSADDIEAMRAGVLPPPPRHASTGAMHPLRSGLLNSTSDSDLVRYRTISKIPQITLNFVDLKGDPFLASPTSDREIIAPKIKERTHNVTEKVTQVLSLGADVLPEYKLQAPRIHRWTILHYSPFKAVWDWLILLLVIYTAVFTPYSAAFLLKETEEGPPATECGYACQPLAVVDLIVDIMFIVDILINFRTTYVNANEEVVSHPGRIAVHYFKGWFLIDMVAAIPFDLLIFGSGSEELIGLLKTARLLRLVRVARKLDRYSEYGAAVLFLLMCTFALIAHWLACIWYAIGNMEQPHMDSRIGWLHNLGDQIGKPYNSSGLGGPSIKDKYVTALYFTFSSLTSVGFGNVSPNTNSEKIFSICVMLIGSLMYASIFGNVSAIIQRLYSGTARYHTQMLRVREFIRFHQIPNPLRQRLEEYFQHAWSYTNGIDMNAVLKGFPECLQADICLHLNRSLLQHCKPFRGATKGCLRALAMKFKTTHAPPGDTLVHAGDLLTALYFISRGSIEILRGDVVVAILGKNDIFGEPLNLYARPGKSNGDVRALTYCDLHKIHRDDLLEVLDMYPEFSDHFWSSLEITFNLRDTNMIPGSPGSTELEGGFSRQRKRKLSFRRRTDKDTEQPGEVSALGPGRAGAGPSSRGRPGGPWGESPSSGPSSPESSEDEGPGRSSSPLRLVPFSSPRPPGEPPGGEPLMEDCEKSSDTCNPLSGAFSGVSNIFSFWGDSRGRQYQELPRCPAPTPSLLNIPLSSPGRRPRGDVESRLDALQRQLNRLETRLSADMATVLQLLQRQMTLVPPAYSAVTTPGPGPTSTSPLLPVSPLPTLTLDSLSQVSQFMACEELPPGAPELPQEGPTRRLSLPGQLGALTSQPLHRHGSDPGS

Structure (SMILES)	hERG current change (%, negative = inhibition) at 1uM
CCc1cccc(N(C(=O)c2csnn2)C(C(=O)NC2CCCC2)c2cccnc2)c1 (stereo not shown)	7.53%
CC1CCCCN1C(=O)CSc1nnc2c(n1)[nH]c1ccccc12 (stereo not shown)	9.09%
CCOC(=O)c1sc(Nc2cccc(C)c2C)nc1C	-9.3%
Nc1ccc2nc(CCCCCCc3nc4ccc(N)cc4[nH]3)[nH]c2c1	9.44%
COc1ccc(CN2C(=O)[C@@H]3C(c4ccccc4Cl)=NO[C@@H]3C2=O)cc1	6.12%
O=C(Nc1ccccc1-c1ccccc1)c1ccc(Cl)c([N+](=O)[O-])c1	7.97%
Cc1ccccc1NC(=O)c1cc(=O)c2ccccc2o1	2.83%
Cc1c(NC(=O)CN2C(=O)NC3(CCC(C)CC3)C2=O)c(=O)n(-c2ccccc2)n1C (stereo not shown)	12.9%
N#CC(c1cccc(Cl)c1)c1ncc(C(F)(F)F)cc1Cl (stereo not shown)	17.3%
COc1ccc(NC(=O)CN2C(=O)NC(C)(c3ccc(C)cc3)C2=O)cn1 (stereo not shown)	3.36%
CNC(=O)C(=O)NCCC1CCCCN1S(=O)(=O)c1cccs1 (stereo not shown)	14.8%
COc1ccccc1C(=O)NC(=S)N1CCCc2ccccc21	4.79%
Cc1cc(NC(=O)CSc2nnc(Cc3ccccc3)n2C)no1	0.442%
O=C1CCC(c2ccccc2)=NN1	1.61%
N#Cc1ccccc1COC(=O)CCCC1=NS(=O)(=O)c2ccccc2N1	5.85%
CCC(CO)N=CC1=C(O)CC(C)(C)CC1=O (stereo not shown)	10.1%
COc1cc(C2NC(=O)CCC2[N+](=O)[O-])cc(Br)c1OC (stereo not shown)	11%
C=CCOc1ccc(CN(C)CC(O)COc2cccc3ccccc23)cc1 (stereo not shown)	12.2%
Cc1cccnc1NC(=O)C(C)N1C(=O)c2ccccc2C1=O (stereo not shown)	15.6%
C=CCn1c(=NC(=O)c2cccs2)sc2cccc(OC)c21	7.24%
Cc1cccc(C)c1NC(=O)C1CCCCN1C.Cl (stereo not shown)	15%
CCOc1ccc(CN(C)C(=O)CCl)cc1	3.59%
Cc1cccc(C(=O)NCC(=O)NCC2COc3ccccc3O2)c1 (stereo not shown)	5.46%

Structure (SMILES)	hERG current change (%, negative = inhibition) at 1uM
CC12CCC(C/C1=N\OC(=O)c1ccc(F)cc1)C2(C)C (stereo not shown)	6.63%
CC1CCN(C(=O)c2cc(F)c(F)cc2Cl)CC1	16.2%
O=C(OCc1ccccc1)N1CCc2ccccc21	10.1%
O=C(NCCCN1CCOCC1)c1onc(CSc2ccccc2)c1C(=O)NCCCN1CCOCC1	14.7%
NS(=O)(=O)c1ccc(N2N=C(c3ccc(Br)cc3)CC2c2ccc(F)cc2)cc1 (stereo not shown)	11.4%
O=S(=O)(c1cnc(Cl)c(Cl)c1)N1CCN(c2ncccn2)CC1	5.7%
COc1ccc(NC(=S)N2CCCCCC2)cc1OC	15.7%
COc1cc(NC(=O)C23CC4CC(C2)CC(n2nnc(C)n2)(C4)C3)c(OC)cc1Cl	6.09%
O=C(CNC(=O)c1cccs1)OCC(=O)c1ccc([N+](=O)[O-])cc1	24.6%
Cc1ccc(C)c(OCCCC(=O)O)c1	10.7%
O=C(CNC(=S)NC(=O)c1ccco1)c1ccccc1	-4.74%
COC(=O)c1ccc2c(=O)n(Cc3ccc(C(=O)NC(C)C)cc3)c(=S)[nH]c2c1	17.8%
COc1cccc(CCNC(=O)CC2C(=O)NCCN2CC(C)(C)C)c1 (stereo not shown)	13%
COc1ccccc1OCC(O)CNCc1ccc2c(c1)OCO2 (stereo not shown)	-4.46%
COC(=O)C1=C(c2ccc(F)cc2OCc2ccccc2)C[C@@H]2CC[C@H]1N2C(=O)NC1CCN(Cc2ccccc2)CC1	13.4%
O=S(=O)(c1ccc(N2CC=C(c3ccccc3)CC2)nc1)N1CCCC1	8.41%
COc1cccc(NC(=O)C2CCCN(S(=O)(=O)c3cccc4cccnc34)C2)c1 (stereo not shown)	10.2%
CC(C)C(=O)c1ccc(O)c(O)c1	11.1%
COc1ccc(Cl)cc1NC(=O)N1CCN(C2CCCCC2)CC1	-14%
CC1(C)CC(N(Cc2cccs2)C(=O)c2ccco2)CCO1 (stereo not shown)	11.3%
Cc1cc(C)c(C#N)c(SCC(=O)Nc2ccccc2C(N)=O)n1	-3.6%
Nc1[nH]c(=O)[nH]c(=O)c1N=Nc1ccc(C(=O)O)cc1	13.5%
CCCCn1c(N)c(N(CC(C)C)C(=O)CSC(C)C(=O)Nc2cc(C)on2)c(=O)[nH]c1=O (stereo not shown)	10.6%

Structure (SMILES)	hERG current change (%, negative = inhibition) at 1uM
CCOC(=O)c1ccccc1C(=O)N1CCOCCOCCOCC1	6.2%
Cc1ccc(O)c(NS(=O)(=O)c2cccc3nsnc23)c1	-4.68%
CC(=O)c1ccccc1C(=O)N1CCCC(CCC(=O)N2CCN(c3ccccn3)CC2)C1 (stereo not shown)	13%
CC(C)[C@H](NC(=O)N1CCn2c1nc1ccccc12)C(=O)NCc1ccc2c(c1)OCO2	6.23%
COc1ccc(OC)c(CNC(=O)CCc2cn(C)c3ccccc23)c1	14.4%
COc1ccc([C@H]2CC(=O)C=C(c3ccccc3)C2)cc1OC	-3.28%
CC(C)Cn1nc(-c2ccccc2)c2ccccc2c1=O	10.6%
COc1ccc(C(Nc2cc(C)ccn2)c2ccc3ccc(C)nc3c2O)cc1 (stereo not shown)	4.46%
CCC(=O)c1ccc(CCCCCC(=O)O)s1	11.9%
Cc1cc(C(=O)NCCC2=CCCCC2)c(C)o1	8.46%
COC(=O)c1ccccc1NS(=O)(=O)c1ccc2c3c(cccc13)C(=O)N2	14.3%
Br.C=CCN1CCc2cc(O)c(O)cc2C(c2ccccc2)C1 (stereo not shown)	10.1%
CCN(C(=O)c1ccccc1)c1ccc([N+](=O)[O-])cc1	-3.87%
COCCCN(CCNC(=O)c1ccc(NC2=NC3CS(=O)(=O)CC3S2)cc1)Cc1ccco1 (stereo not shown)	6.47%
Cc1cc(C)cc(NC(=O)C2CC(=O)n3ncnc3N2)c1 (stereo not shown)	11.7%
CC1CCCC(NC(=O)CCCn2ncn3c(cc4occc43)c2=O)C1C (stereo not shown)	9.19%
O=c1n(-c2cccc(Cl)c2)c(=O)n2n1CCC2	0.155%
CC(C)OC(=O)CSc1nnc(-c2ccc(Cl)cc2Cl)o1	2.47%
COc1ccc(CCNC(=O)CSCc2c(F)cccc2Cl)cc1OC	-0.925%
COc1ccc(S(=O)(=O)NC2CCCC2)cc1C(N)=O	7.28%
CCOc1ncccc1C(=O)Nc1cccc(-c2nc3cccnc3s2)c1	7.41%
COc1ccc(CCNS(=O)(=O)c2ccc(Br)s2)cc1	15.6%
COc1cccc(CN2CC(C(=O)NC3CCC(O)CC3)CCC2=O)c1 (stereo not shown)	14.5%

Structure (SMILES)	hERG current change (%, negative = inhibition) at 1uM
CCN(CC)S(=O)(=O)c1cccc(C(=O)Nc2ccc(S(=O)(=O)NC3=NCCCCC3)cc2)c1	13.5%
COc1ccc(/C(C)=N/Nc2nc(C)cc(-c3ccccc3)n2)cc1	10.8%
COCc1cc(C(C)=O)ccc1OCC(=O)Nc1ccc(NC(C)=O)cc1	-3.86%
Cc1ccc2cc(CN(Cc3ccco3)C(=O)c3ccccc3)c(=O)[nH]c2c1C	2.45%
COc1ccccc1C1C([N+](=O)[O-])=C(N)Oc2c1c(=O)oc1ccccc21 (stereo not shown)	15.6%
CC1=CC(C)(C)[N+](C)(C)c2ccc(C)cc21.[I-]	19.2%
Cc1nn(C(=O)CCC(=O)NCc2ccc(OC(C)C)cc2)c2ccccc12	9.58%
C=CCOc1nc2c(c(=O)n(C)c(=O)n2C)n1Cc1ccccc1Cl	8.43%
O=C(CCCN1C(=O)c2cccc3cccc(c23)C1=O)N1CCN(Cc2ccc3c(c2)OCO3)CC1	0.941%
Cc1cc(C(=O)O)c(C)n1C1CC1	11%
[O-][n+]1ccccc1SCc1ccccc1	14.9%
CCOC(=O)c1ccc(-c2c(-c3ccc(OC)cc3)oc(=O)c3cc(OC)c(OC)cc23)cc1F	14.4%
CCc1cc(=O)[nH]c(SCc2cccnc2)n1	15.2%
CC(NC(=O)CN(C)Cc1nc2ccccc2c(=O)[nH]1)c1ccccc1 (stereo not shown)	9.95%
CCOc1ccc(C(=O)OCC(=O)c2c(N)n(C)c(=O)n(C)c2=O)cc1OCC	13.1%
CC1(C)CC(=O)C(=Cc2cn(CCC#N)nc2-c2ccc(Cl)cc2)C(=O)C1	4.96%
CCOC(=O)c1c(NC(=O)Nc2ccc(Cl)cc2)sc(C)c1C	2.19%
COc1ccc(-c2nc(C(N)=O)c3[nH]c(=O)n(-c4ccccc4OC)c3n2)c(OC)c1	8.6%
CCCCCC[N+](C)(C)CC/C=C1/c2ccccc2Sc2ccc(Cl)cc21.[Br-]	-10.9%
CCOC(=O)N/N=C/c1c[nH]c2ccccc12	0.44%
Cc1cc(C)n2nc(C(=O)OCC(=O)N(C)CC(=O)Nc3ccc(F)cc3)nc2n1	7.24%
Cc1cc(C)c(N=C2C(=O)Nc3ccccc32)c(C)c1	7.19%
